Source: a compilation of properties of binary mixtures (doi:10.1021/acs.jced.2c00024)
The densities may have been worked out from excess volumes.

Test: xn = mol fraction of the nth substance listed
Conditions: 101 kPa

O=C1CCCO1 + [S-]C#N.COCCN1C=[N+](C=C1)C
mass density (288.15 K, x2 = 0): 1133.7 kg/m3
mass density (293.15 K, x2 = 0): 1128.7 kg/m3
mass density (298.15 K, x2 = 0): 1123.9 kg/m3
mass density (303.15 K, x2 = 0): 1118.8 kg/m3
mass density (308.15 K, x2 = 0): 1113.9 kg/m3
mass density (318.15 K, x2 = 0): 1104.4 kg/m3
mass density (323.15 K, x2 = 0): 1099.6 kg/m3
mass density (328.15 K, x2 = 0): 1094.7 kg/m3
mass density (333.15 K, x2 = 0): 1089.9 kg/m3
mass density (338.15 K, x2 = 0): 1085.2 kg/m3
mass density (343.15 K, x2 = 0): 1080.5 kg/m3

COCCn1cc[n+](C)c1.N#C[S-] + O=C1CCCO1
mass density (288.15 K, x1 = 0.1027): 1144.6 kg/m3
mass density (288.15 K, x1 = 0.1999): 1152.8 kg/m3
mass density (288.15 K, x1 = 0.3001): 1159.8 kg/m3
mass density (288.15 K, x1 = 0.4001): 1165.5 kg/m3
mass density (288.15 K, x1 = 0.5006): 1170.2 kg/m3
mass density (288.15 K, x1 = 0.6015): 1174.1 kg/m3
mass density (288.15 K, x1 = 0.8038): 1180.1 kg/m3
mass density (288.15 K, x1 = 0.9012): 1182.3 kg/m3
mass density (293.15 K, x1 = 0.1027): 1139.9 kg/m3
mass density (293.15 K, x1 = 0.1999): 1148.4 kg/m3
mass density (293.15 K, x1 = 0.3001): 1155.6 kg/m3
mass density (293.15 K, x1 = 0.4001): 1161.5 kg/m3
mass density (293.15 K, x1 = 0.5006): 1166.3 kg/m3
mass density (293.15 K, x1 = 0.6015): 1170.3 kg/m3
mass density (293.15 K, x1 = 0.7036): 1173.7 kg/m3
mass density (293.15 K, x1 = 0.9012): 1178.9 kg/m3
mass density (293.15 K, x1 = 1): 1180.8 kg/m3
mass density (298.15 K, x1 = 0.1027): 1135.4 kg/m3
mass density (298.15 K, x1 = 0.1999): 1144.1 kg/m3
mass density (298.15 K, x1 = 0.4001): 1157.4 kg/m3
mass density (298.15 K, x1 = 0.5006): 1162.4 kg/m3
mass density (298.15 K, x1 = 0.6015): 1166.5 kg/m3
mass density (298.15 K, x1 = 0.7036): 1170 kg/m3
mass density (298.15 K, x1 = 0.8038): 1172.9 kg/m3
mass density (298.15 K, x1 = 0.9012): 1175.3 kg/m3
mass density (303.15 K, x1 = 0.1027): 1130.7 kg/m3
mass density (303.15 K, x1 = 0.1999): 1139.7 kg/m3
mass density (303.15 K, x1 = 0.4001): 1153.5 kg/m3
mass density (303.15 K, x1 = 0.5006): 1158.6 kg/m3
mass density (303.15 K, x1 = 0.6015): 1162.8 kg/m3
mass density (303.15 K, x1 = 0.7036): 1166.4 kg/m3
mass density (303.15 K, x1 = 0.8038): 1169.4 kg/m3
mass density (303.15 K, x1 = 0.9012): 1171.9 kg/m3
mass density (303.15 K, x1 = 1): 1173.9 kg/m3
mass density (308.15 K, x1 = 0.1027): 1126.1 kg/m3
mass density (308.15 K, x1 = 0.1999): 1135.4 kg/m3
mass density (308.15 K, x1 = 0.3001): 1143.2 kg/m3
mass density (308.15 K, x1 = 0.4001): 1149.5 kg/m3
mass density (308.15 K, x1 = 0.5006): 1154.8 kg/m3
mass density (308.15 K, x1 = 0.7036): 1162.9 kg/m3
mass density (308.15 K, x1 = 0.8038): 1166 kg/m3
mass density (308.15 K, x1 = 1): 1170.6 kg/m3
mass density (313.15 K, x1 = 0.1999): 1131.1 kg/m3
mass density (313.15 K, x1 = 0.3001): 1139 kg/m3
mass density (313.15 K, x1 = 0.4001): 1145.5 kg/m3
mass density (313.15 K, x1 = 0.6015): 1155.4 kg/m3
mass density (313.15 K, x1 = 0.8038): 1162.3 kg/m3
mass density (313.15 K, x1 = 0.9012): 1165 kg/m3
mass density (313.15 K, x1 = 1): 1167.1 kg/m3
mass density (318.15 K, x1 = 0.1027): 1117.2 kg/m3
mass density (318.15 K, x1 = 0.1999): 1127 kg/m3
mass density (318.15 K, x1 = 0.5006): 1147.4 kg/m3
mass density (318.15 K, x1 = 0.6015): 1152 kg/m3
mass density (318.15 K, x1 = 0.7036): 1155.9 kg/m3
mass density (318.15 K, x1 = 0.8038): 1159.1 kg/m3
mass density (318.15 K, x1 = 0.9012): 1161.8 kg/m3
mass density (318.15 K, x1 = 1): 1164 kg/m3
mass density (323.15 K, x1 = 0.1027): 1112.7 kg/m3
mass density (323.15 K, x1 = 0.3001): 1131.1 kg/m3
mass density (323.15 K, x1 = 0.6015): 1148.3 kg/m3
mass density (323.15 K, x1 = 0.8038): 1155.6 kg/m3
mass density (323.15 K, x1 = 0.9012): 1158.4 kg/m3
mass density (323.15 K, x1 = 1): 1160.6 kg/m3
mass density (328.15 K, x1 = 0.1027): 1108.2 kg/m3
mass density (328.15 K, x1 = 0.1999): 1118.4 kg/m3
mass density (328.15 K, x1 = 0.3001): 1126.9 kg/m3
mass density (328.15 K, x1 = 0.4001): 1133.9 kg/m3
mass density (328.15 K, x1 = 0.5006): 1139.8 kg/m3
mass density (328.15 K, x1 = 0.6015): 1144.5 kg/m3
mass density (328.15 K, x1 = 0.7036): 1148.7 kg/m3
mass density (328.15 K, x1 = 0.8038): 1152.1 kg/m3
mass density (328.15 K, x1 = 1): 1157.2 kg/m3
mass density (333.15 K, x1 = 0.1999): 1114.1 kg/m3
mass density (333.15 K, x1 = 0.3001): 1122.9 kg/m3
mass density (333.15 K, x1 = 0.4001): 1130.1 kg/m3
mass density (333.15 K, x1 = 0.5006): 1136.1 kg/m3
mass density (333.15 K, x1 = 0.6015): 1141 kg/m3
mass density (333.15 K, x1 = 0.7036): 1145.2 kg/m3
mass density (333.15 K, x1 = 0.8038): 1148.7 kg/m3
mass density (333.15 K, x1 = 0.9012): 1151.6 kg/m3
mass density (333.15 K, x1 = 1): 1154 kg/m3
mass density (338.15 K, x1 = 0.1027): 1099.2 kg/m3
mass density (338.15 K, x1 = 0.1999): 1109.9 kg/m3
mass density (338.15 K, x1 = 0.3001): 1118.9 kg/m3
mass density (338.15 K, x1 = 0.4001): 1126.2 kg/m3
mass density (338.15 K, x1 = 0.5006): 1132.3 kg/m3
mass density (338.15 K, x1 = 0.8038): 1145.1 kg/m3
mass density (338.15 K, x1 = 0.9012): 1148.2 kg/m3
mass density (338.15 K, x1 = 1): 1150.7 kg/m3
mass density (343.15 K, x1 = 0.1027): 1094.8 kg/m3
mass density (343.15 K, x1 = 0.1999): 1105.8 kg/m3
mass density (343.15 K, x1 = 0.3001): 1115 kg/m3
mass density (343.15 K, x1 = 0.4001): 1122.4 kg/m3
mass density (343.15 K, x1 = 0.6015): 1133.8 kg/m3
mass density (343.15 K, x1 = 0.8038): 1141.8 kg/m3
mass density (343.15 K, x1 = 0.9012): 1144.9 kg/m3
mass density (343.15 K, x1 = 1): 1147.4 kg/m3
